Laboratory results published in PubChem BioAssay AID624417 (National Center for Advancing Translational Sciences (NCATS), 2012).
Out of some 410,000 compounds screened, about 6,400 (1.6%) were called active. This list was built around the results that the source calls inconclusive (neither active nor inactive); the mix of calls is not that of the screen. Calls come from the whole dose curve; as a rule, active = well fitted inhibition curve with a large enough effect; inconclusive = small, poorly fitted or top-dose-only effect; inactive = no such curve, though single readings can be large or run the other way. Potencies of inconclusive entries are left out as doubtful fits.
Note: nearly all actives have a fitted effect of over 55% in size.
Potency is the fitted concentration of half-maximal effect; tags give direction and shape of the fitted curve.

Each compound was assayed against Glucagon-like peptide 1 receptor (Homo sapiens) (UniProt P43220) (assay: qHTS of GLP-1 Receptor Inverse Agonists (Inhibition Mode)). Conditions: HEK293 GLP-1R CRE-luciferase, luminescence, 24 h, GLP-1R form is constitutively active; series mostly up to 38.3 µM.
UniProt P43220, sequence (P43220 whole entry, looked up): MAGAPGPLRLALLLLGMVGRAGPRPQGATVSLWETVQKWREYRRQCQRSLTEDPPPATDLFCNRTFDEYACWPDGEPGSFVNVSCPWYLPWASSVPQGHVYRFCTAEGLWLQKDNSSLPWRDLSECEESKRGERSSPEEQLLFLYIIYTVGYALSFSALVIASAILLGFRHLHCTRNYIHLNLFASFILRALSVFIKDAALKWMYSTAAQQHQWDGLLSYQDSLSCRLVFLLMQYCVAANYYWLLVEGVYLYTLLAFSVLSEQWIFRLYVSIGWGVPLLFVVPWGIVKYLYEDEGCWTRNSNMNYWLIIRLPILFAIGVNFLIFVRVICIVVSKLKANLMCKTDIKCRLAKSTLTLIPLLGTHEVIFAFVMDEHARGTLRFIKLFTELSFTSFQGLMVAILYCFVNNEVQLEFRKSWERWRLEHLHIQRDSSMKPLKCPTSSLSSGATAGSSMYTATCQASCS
Summary of the method: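 Cells are plated, allowed 12 hours at 37 deg C, then treated with compounds for 24 hr before luciferase detection reagent is added and luminescence is read after 12 min at room temperature. The HEK293 line carries constitutively active GLP-1R with a cAMP-responsive reporter.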
With `Cc1ccc(NC(=O)c2cc(NC(=O)c3ccccc3C(=O)O)ccc2N2CCCCC2)cc1` the Potency was inconclusive [inhibitor, partial curve, poor fit].
For `COc1cccc(C2=NOC(C(=O)NCc3cccs3)C2)c1` (centres undefined), the Potency was inconclusive [inhibitor, full curve, poor fit].
For `CCN(Cc1ccc(OC)c(COC)c1)CC1CCCN(CCc2cccc(OC)c2)C1` (centres undefined), the Potency was inconclusive [inhibitor, single point].
With `COCCNC(=S)N/N=C(\C)c1ccc(Cl)c(Cl)c1` the Potency was inconclusive [inhibitor, full curve, poor fit].
In the case of `Cc1ccc(C(=O)NC2CC(C)(C)NC(C)(C)C2)cc1S(=O)(=O)N1CCCCC1`, the Potency was inconclusive [inhibitor, single point].
With `COc1ccccc1NC(=O)c1ccc(S(=O)(=O)N(C)c2ccccc2)cc1` the Potency was inconclusive [inhibitor, single point].
For `O=C(Nc1ccccc1)N1CCC(O)(c2cccc(C(F)(F)F)c2)CC1`, the Potency was inconclusive [inhibitor, partial curve, poor fit].
In the case of `CCCCn1c(NC(=O)C2CCCCC2)nc2ccccc21`, the Potency was inconclusive [inhibitor, partial curve, poor fit].
With `O=C(CC(c1ccc(F)cc1)c1ccco1)Nc1nccs1` (centres undefined) the Potency was inconclusive [inhibitor, single point].
With `CN(C)CCN(C(=O)C1CCN(S(=O)(=O)c2cccs2)CC1)c1nc2ccccc2s1` the Potency was “inactive”.
For `C/C(=N\NC(=O)c1ccc(N(C)C)cc1)c1ccc(C)c(C)c1`, the Potency was inconclusive [inhibitor, full curve, poor fit].
In the case of `O=C(Nc1ccc(F)c(Cl)c1)N1CCC(CN2CCc3ccccc3C2)CC1`, the Potency was inconclusive [inhibitor, single point].
In the case of `COc1ccc(/C(N)=N/OC(=O)CSc2ccccc2)cc1`, the Potency was inconclusive [inhibitor, single point].
In the case of `CCN(CC)C(=O)CSc1nc2ccccc2c(=O)n1-c1cccc(OC)c1`, the Potency was inconclusive [inhibitor, partial curve, poor fit].
`Cc1cc(=O)oc2cc(OCC(=O)Nc3cccc(S(=O)(=O)N(C)C)c3)ccc12` was tested, and the Potency was “inactive”.
With `Cc1cccc(N2CCN(C(=O)[C@H](C)N3C(=O)C4CC=CCC4C3=O)CC2)c1C` (some centres undefined) the Potency was inconclusive [inhibitor, partial curve, poor fit].
`Cc1cccc(-c2nc3ccccc3n3c(-c4ccccc4)c4c(=O)n(C)c(=O)n(C)c4c23)c1` was tested, and the Potency was “inactive”.
In the case of `CCOc1ccccc1C(=O)N/N=C/c1cccc2cccnc12`, the Potency was inconclusive [inhibitor, partial curve, poor fit].
In the case of `O=C1/C(=C/c2ccc(F)c(F)c2)CSc2sccc21`, the Potency was inconclusive [inhibitor, single point].
With `NS(=O)(=O)c1cccnc1Nc1ccc(Cl)c(Cl)c1` the Potency was inconclusive [inhibitor, partial curve, poor fit].
`Cc1ccc(-n2cccc2/C=C2\C(=N)N3N=C(C(C)C)SC3=NC2=O)cc1` was tested, and the Potency was inconclusive [inhibitor, single point].
With `O=[N+]([O-])c1ccc(C(O)CSC(=S)N2CCCCC2)cc1` (centres undefined) the Potency was inconclusive [inhibitor, single point].
With `Cc1ccc(-c2cn3cccc(C)c3n2)cc1` the Potency was inconclusive [inhibitor, single point].
In the case of `Cc1ccc(C(=O)N/N=C/C2=Cc3ccccc3OC2C)cc1` (centres undefined), the Potency was inconclusive [inhibitor, partial curve, poor fit].
In the case of `COc1cccc(CNC(=O)Cc2ccc(NC(=O)N3CCCCc4ccccc43)cc2)c1OC`, the Potency was inconclusive [inhibitor, single point].
`Cc1cccc(NC(=S)NC2CC3CCCC(C2)N3Cc2ccco2)c1` (centres undefined) was tested, and the Potency was inconclusive [inhibitor, partial curve, poor fit].
In the case of `COc1cccc(C(=O)NC(=S)Nc2ccc(N3CCCC3)cc2)c1`, the Potency was inconclusive [inhibitor, partial curve, poor fit].
With `COc1ccc(CNC(=O)C(=O)NCCC2CCCCN2S(=O)(=O)c2ccc(C)cc2)cc1` (centres undefined) the Potency was inconclusive [inhibitor, partial curve, poor fit].
In the case of `O=C(Cc1ccccc1[N+](=O)[O-])OCC(=O)c1c[nH]c2ccccc12`, the Potency was inconclusive [inhibitor, partial curve].
`Cn1c(NCCCN2CCOCC2)nc2c1c(=O)n(Cc1ccc(Cl)cc1Cl)c(=O)n2C` was tested, and the Potency was “inactive”.
`COc1ccc(CNC(=O)Cc2ccc(NC(=O)C3=C(C)OCCS3)cc2)cc1` was tested, and the Potency was inconclusive [inhibitor, full curve].
For `Cc1ccc(/C=C/c2onc(C)c2S(=O)(=O)N2CCC(C(=O)NCc3ccc(C)o3)CC2)cc1`, the Potency was “inactive”.
In the case of `Cc1ccc(CN(Cc2cccnc2)C(=S)Nc2cccc(Cl)c2C)cc1`, the Potency was inconclusive [inhibitor, partial curve, poor fit].
With `NS(=O)(=O)c1ccc2nc(NC(=O)C3CCCO3)sc2c1` (centres undefined) the Potency was “inactive”.
`CCOc1ccc(NS(=O)(=O)c2cc3c(cc2C)N(C)CCO3)cc1` was tested, and the Potency was inconclusive [inhibitor, partial curve, poor fit].
For `CC(C)CC(C(=O)NCc1ccc(F)cc1)N1Cc2ccccc2C1=O` (centres undefined), the Potency was “inactive”.
`Cc1ccc(C)c(-n2c(CCC(=O)O)ccc2-c2ccc(Cl)cc2)c1` was tested, and the Potency was inconclusive [inhibitor, single point].
`COc1ccc(Nc2ncc(C(=O)N3CCN(c4cccc(Cl)c4)CC3)c3ccccc23)cc1` was tested, and the Potency was active: 8.91 µM.
In the case of `Fc1ccc(-n2nnc(-c3nccs3)n2)cc1`, the Potency was inconclusive [inhibitor, single point].
`O=C1C(c2ccccc2)c2ccccc2N1Cc1ccccc1` (centres undefined) was tested, and the Potency was inconclusive [inhibitor, partial curve, poor fit].
`Cc1cccc(NC(=O)CSc2nc(-c3ccccc3)cn2-c2ccccc2)c1C` was tested, and the Potency was inconclusive [inhibitor, single point].
With `O=C(NCc1ccc2c(c1)OCO2)c1cc([N+](=O)[O-])ccc1N1CCCCC1` the Potency was inconclusive [inhibitor, full curve, poor fit].
For `Cc1ccc(Cl)cc1N1CCN(C(=O)COc2ccc(S(=O)(=O)NC(C)C)cc2)CC1`, the Potency was inconclusive [inhibitor, partial curve, poor fit].
With `COc1cccc2cc(C(C)N(CCCN3CCOCC3)C(=S)Nc3cc(C)ccc3C)oc12` (centres undefined) the Potency was inconclusive [inhibitor, single point].
With `COc1ccc(C(c2nnnn2Cc2cccs2)N2CCN(c3ccc(F)cc3)CC2)cc1OC` (centres undefined) the Potency was inconclusive [inhibitor, partial curve, poor fit].
`Cc1ccc(C(=O)CC2(O)C(=O)N(CCc3ccccc3)c3ccc(Cl)cc32)cc1` (centres undefined) was tested, and the Potency was inconclusive [inhibitor, single point].
For `C/C(=N/O)c1cc(C(C)(C)C)c(O)c(C(C)(C)C)c1`, the Potency was inconclusive [inhibitor, partial curve, poor fit].
With `CC(C)OC(=O)c1cccnc1SCc1cc(=O)n2ccccc2n1` the Potency was “inactive”.
`Cc1cc(Nc2cccc(C)c2C)n2cnnc2n1` was tested, and the Potency was “inactive”.
In the case of `CCOC(=O)c1ccc(NC(=O)C2(c3ccccc3)CCOCC2)cc1`, the Potency was inconclusive [inhibitor, partial curve, poor fit].
In the case of `CC1(C)C=Cc2c(ccc3c2OC[C@H](c2ccc(O)cc2O)C3)O1`, the Potency was inconclusive [inhibitor, single point].
`CCOc1ccc([C@@H]2CC=C(C(=O)O)[C@H](c3cccc(Cl)c3)N2S(=O)(=O)c2ccc(C)cc2)cc1` was tested, and the Potency was inconclusive [inhibitor, single point].
For `Cc1ccc(CNC(=O)c2cc3c(C)nc4ccccc4c3o2)cc1`, the Potency was inconclusive [inhibitor, partial curve, poor fit].
In the case of `Cc1ccccc1OC(C)C(=O)N1CCN(c2ccccn2)CC1` (centres undefined), the Potency was inconclusive [inhibitor, full curve, poor fit].
With `CCC(C)n1nccc1NC(=O)C(C)OC(=O)c1cc2ccccc2[nH]1` (centres undefined) the Potency was “inactive”.
With `COc1ccc(OCCCCn2c(-c3ccc(Cl)cc3)nc3ccccc3c2=O)cc1` the Potency was “inactive”.
With `O=C(CSc1nnc(COc2ccc(Cl)cc2)o1)NC1CCCCC1` the Potency was inconclusive [inhibitor, single point].
In the case of `COC(=O)c1c(-c2ccc(C)cc2)csc1N`, the Potency was inconclusive [inhibitor, single point].
`CCCCCOC(=O)CSc1ncnc2c1sc1nc(N3CCOCC3)c3c(c12)CCCC3` was tested, and the Potency was “inactive”.
`Clc1cc(Cl)cc(Nc2ncnc(-n3cccc3)n2)c1` was tested, and the Potency was “inactive”.
With `CCC(Oc1ccccc1)C(=O)Nc1ccsc1C(=O)OC` (centres undefined) the Potency was inconclusive [inhibitor, partial curve, poor fit].
`N#C/C(=C(/O)c1ccccc1F)c1nc2cc(C(F)(F)F)ccc2s1` was tested, and the Potency was inconclusive [inhibitor, partial curve, poor fit].
With `Cc1ccc2c(=O)cc(C(=O)Nc3cccc(Cl)c3C)oc2c1C` the Potency was “inactive”.
For `CC12c3ccccc3C(c3ccccc31)C1C(=O)N(c3ccncc3)C(=O)C12` (centres undefined), the Potency was inconclusive [inhibitor, partial curve, poor fit].
